From the supplement of paper PMC4967469
Lines with a small IC50 respond at low doses; fits outside the tested doses are given as limits. AUC is the area under the same curve over the 256-fold range up to the top dose, as a fraction; it is 1 without any effect and falls as sensitivity rises. For some assays here: The top dose, if marked as inferred, was calculated from the reported fits.

How the values were obtained:
Experiment in all cases: Viability of human cancer cell lines after 72 h of drug (GDSC screen)
PD-173074 = compound: CCN(CC)CCCCNc1ncc2cc(-c3cc(OC)cc(OC)c3)c(NC(=O)NC(C)(C)C)nc2n1 [PD-173074]; conditions: top dose 2 µM; top dose inferred
Protocol: (§1)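 Human cancer cell lines in 384-well plates, medium with 10% serum, drug for 72 h over a 256-fold dose range (nine 2-fold or five 4-fold steps up to the top dose). Adherent lines were fixed and stained with the nucleic acid dye Syto60, suspension lines read with resazurin; signal relative to control wells, capped at 0 and 100%. One two-parameter sigmoid per drug and line, fitted in a mixed model over all curves with the slope shared within a line.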

Lapatinib = compound: CS(=O)(=O)CCNCc1ccc(-c2ccc3ncnc(Nc4ccc(OCc5cccc(F)c5)c(Cl)c4)c3c2)o1 [Lapatinib]; conditions: top dose 2 µM
Protocol: as §1

TGX221 = compound: Cc1cc(C(C)Nc2ccccc2)c2nc(N3CCOCC3)cc(=O)n2c1 [TGX221]; conditions: top dose 10 µM
Protocol: as §1

SB590885 = compound: CN(C)CCOc1ccc(-c2nc(-c3ccncc3)c(-c3ccc4c(c3)CC/C4=N\O)[nH]2)cc1 [SB590885]; conditions: top dose 5 µM; top dose inferred
Protocol: as §1

Cell Line	AUC (PD-173074)	IC50 (PD-173074) [nM]	AUC (Lapatinib)	IC50 (Lapatinib) [nM]	AUC (TGX221)	IC50 (TGX221) [nM]	AUC (SB590885)	IC50 (SB590885) [nM]
OCI-AML3 (acute myeloid leukaemia, suspension)	0.914	> 2000	0.991	> 2000	0.991	> 10000	0.95	> 5000
LU-165 (small cell lung carcinoma, suspension)	0.987	> 2000	0.986	> 2000	0.988	> 10000	0.987	> 5000
NCI-H1304 (small cell lung carcinoma, suspension)	0.985	> 2000	0.975	> 2000	0.964	> 10000	0.987	> 5000
ES7 (Ewing sarcoma, adherent)	0.984	> 2000	0.941	> 2000	0.853	8140	0.97	> 5000
SK-UT-1 (soft tissue, adherent)	0.923	> 2000	0.949	> 2000	0.828	5420		
NCI-H1648 (lung adenocarcinoma, adherent)	0.966	> 2000	0.293	31.2	0.939	> 10000		
MMAC-SF (melanoma, adherent)	0.937	> 2000	0.976	> 2000	0.908	> 10000		
LB2241-RCC (kidney, adherent)			0.755	755	0.924	> 10000		
KASUMI-1 (acute myeloid leukaemia, suspension)			0.961	> 2000	0.98	> 10000		
NCI-H716 (large intestine, suspension)			0.965	> 2000	0.981	> 10000		
NTERA-2 cl.D1 (testis, adherent)			0.897	> 2000	0.907	> 10000		
K5 (thyroid, adherent)	0.962	> 2000	0.983	> 2000	0.972	> 10000		
TALL-1 (T-cell lymphoblastic leukaemia, suspension)			0.988	> 2000	0.985	> 10000		
SW872 (soft tissue, adherent)			0.981	> 2000	0.894	> 10000		
TE-441-T (rhabdomyosarcoma, adherent)			0.966	> 2000	0.961	> 10000		
EW-12 (Ewing sarcoma, suspension)			0.973	> 2000	0.905	> 10000		
HCC2998 (large intestine, adherent)			0.948	> 2000	0.97	> 10000		

Cell Line	AUC (PD-173074)	IC50 (PD-173074) [nM]	AUC (Lapatinib)	IC50 (Lapatinib) [nM]	AUC (TGX221)	IC50 (TGX221) [nM]	AUC (SB590885)	IC50 (SB590885) [nM]
HCC1599 (breast, suspension)			0.975	> 2000	0.782	4820		
NK-92MI (lymphoid neoplasm, suspension)			0.987	> 2000	0.821	5270		
NCI-H1963 (small cell lung carcinoma, suspension)			0.984	> 2000	0.991	> 10000		
PL-21 (acute myeloid leukaemia, suspension)			0.977	> 2000	0.933	> 10000		
NCI-H1666 (lung adenocarcinoma, semi-adherent)			0.987	> 2000	0.986	> 10000		
COLO-829 (melanoma, adherent)			0.975	> 2000	0.821	9910		
ECC12 (stomach, suspension)			0.478	107	0.974	> 10000		
NCI-H2196 (small cell lung carcinoma, adherent)			0.986	> 2000	0.986	> 10000		
Hs-445 (Hodgkin lymphoma, suspension)			0.988	> 2000	0.972	> 10000		
MZ2-MEL (melanoma, adherent)	0.978	> 2000	0.933	> 2000	0.931	> 10000		
SK-MEL-2 (melanoma, adherent)	0.986	> 2000	0.984	> 2000	0.98	> 10000		
NCI-H128 (small cell lung carcinoma, suspension)			0.977	> 2000	0.978	> 10000		
HCC-33 (small cell lung carcinoma, adherent)			0.986	> 2000	0.987	> 10000		
UACC-812 (breast, adherent)			0.933	> 2000	0.991	> 10000		
HEL (acute myeloid leukaemia, semi-adherent)			0.992	> 2000	0.99	> 10000		
LS-123 (large intestine, adherent)			0.91	> 2000	0.936	> 10000		
NCI-H2171 (small cell lung carcinoma, suspension)			0.992	> 2000	0.991	> 10000		
